Results published in the RNAGym collection of RNA variant scans (doi:10.7554/elife.90254).
Read counts are not given, so values of variants with three or more changes are uncertain.

B1: LINE1-full (parent)
chain: UACGUAGGUGGUUUUCCCCUGAUAGUGCUAAGGGGGCCUGGAAGUUUGGACUGGGCAGAGCUCAACACAGCGUGGCAAAGUGGCUGUGGCUAGACUGCCUCUCUGGAUUCCUCGUCACUCAGCAGGGCAUCUCUGAGAGAAAUGCC

Variants of: B1
Assay: self-cleavage, relative activity (ratio to wild type); higher = more cleavage; in vitro, sequencing; the parent is a self-cleaving ribozyme

Variant | self-cleavage
UACGUAGGUGGUUUACCCCUGAUAGUGCUAAGGGGGCCUGGAAGUCUGGACAGGGCAGAGCUCAACACAGCGUGGCAAAGUGGCUGUGGCUAGACUGCCUCUCUGGAUUCCUCGUCACUCAGCAGGGCAUCUCUGAGAGAAAUGCC | 0.81
UACGUAGGUGGUAUUCCCCUGAUAGUGCUAAGGGGGCCUGGGAGUUUGGACUGGGCAGAGCUCAACACAGCGUGGCAGAGUGGCUGUGGCUAGACUGCCUCUCUGGAUUCCUCGUCACUCAGCAGGGCAUCUCUGAGGGAAGUGCC | 1.34
UAAGUAGGAGGUUUUCCCCUGAUAGUGCUAAGGGGGCCUGGUAGCUUGGACUGGGCAGAGCCCAACACAGCGUGGCAAAGUGGCUGUGGCUAGACUGCCUCUCUGGAUUCCUCGUCACUCAGCAGGGCAUCUCUGAGAGAAAUGCC | 0.24
UACGUAGGUGGUUUUCCCCUGAUAGUGCUAAGGGGGCCUGGAAGUUUGGACUGGGCAGAGCUCAACACAGCGUGGCAAAGUGGCCGAGGCUAGACUGCCUCUCUGGAUUCCUCGUCACUCAGCAGGGCAUCUCAGAGAGAAAUGCC | 0
UACGUAGGUGGUUUUCCCCUGAUAGUGCUAAGGGGGCCUGGAAGUUUGGACUGGGCAGAGCUCAACACAGCGUGGCAAAGUGGCUGUGGCUAGACUGCCUCACUGGAUUCCUCGUCACUCAGCAGGGCAACUCUGAGAGAAACGCC | 1.47
UACGUAGGUGGUUUUCCCCUGAUAGUGCUAAGGGGGCCUGGAAGUUUGGACUGGGCAGAGCUCAACACAGCAUGGCAAAGUGGCCGUGGCUAGACUGCCUCUCUGGAUUCCUCGUCACUCAGCAGGGCAUCUCUGAGAGAAAUACC | 0.1
UACGUAGGUGGUUUUCCCCUGAUAGAGCUAAGGGGGCCUGGAAGUUUGGACUGGGCAGAGCUCAACACAGCGUGGCAAGGUGGCUGUGGCUAGACUGCCUCUCUGGAUUCCUCGUCACUCAGCAGGGUAUCUCUGGGAGAGAUGCC | 1.41
UACGUAGGUGGUUUUCCCCUGAUAGUGCUAAGGGGGCCUGGAGGUUUGGACUGGGCAGAGCUUAACACAGCGUGGCAUAGUGGCUGUGGCUAGACUGCCUCUCUGGAUUCCUCGUCACUCAGCAGGGCAUCUCUGAGAGAAAUGCC | 0.49
UACGUAGGUGGUUUUCCCCUGAUAGAGCUAAGGGGGCCCGGAAGUUUGGACUGGGCAGAGCUCAACACAGCGUGGCAAAGUGGCUGUGGCUAGACUGCCUCUCUGGAUUCCUCGACACUCAGCAGGGCAUCUCUGAGAGAAAUGCC | 0.79
UACGUAGGUGGUUUUCCCCUGAUAGUGCUAAGGGGGCCUGGAAGUUUGGACUGGGCAGAGCUCUACACAGCGUGGCGAAGUGGCUGUGGCUAGACUGCCUCUCUGGACUCCUCGUCACUCAGCAGGGCAUCUCUGAGGGAAAUGCC | 0.99
UACGUAGGUGGUCUUCCCCUGAUAGUGCUAAGGGGGCCUGGUAGUUCGGACUGGGCAGAGCUCAACACAGCGUGGCAAAGUGGCUGUGGCUAGACUGCCCCUCUGGAUUCCUCGUCACUCAGUAGGGCAUCUCUGAGGGAAAUGCC | 1.53
UACGAAGGUGGUUUUCCCCUGAUAGUGCUAUGGGGGCCUGGAAGUUUGGACUGGGCAGAGCUCAGCACAGCGUGGCAAAGUGGCUGUGGCUAAACUGCCUCUCUGGAUUCCUCGUCACUCGGCAGGGCAUCUCUGAGAGAAAUGCC | 0
UACGUAGGUGGUUUUCCCCUGAUAGAGCUAAGGGGGCCUGGAAGUUUGGACUGGGCAGAGCUCAACACAGCGUGGCAAGGUGGCUGUGGCUAGACUGCCUCUCUGGAUUCCUCGUCACUCAGCAGGGCAUCUCCGAGGGAAAUGCC | 1.23
UACGCAGGUGGUUUUCCCCUGAUAGUGCUAAGGGGGCCUGGAAGUUUGGACUGGGCAGAGCUCAACACAGCGUGGCAAAGUGGCUGUGGCUAGGCCGCCUCUCUGGAUUCCUCGUCACUCAGCAGGGCAUCUCUGAGAGAAAUACC | 0
UACGUAGGUGGUUUUCCCCAGAUAGUGCUAAGGGGGCCUGGAAGUUUGGACUGGGCAGAGCUCAACACAGCGUUGCCAAGUGGCUGUGGCUAGACUGCCUCUCUGGAUUCCUCGUCACUCAGCAGGGCAUCUCUGAGAGAAAUGCC | 1.66
UACGUAGGCGGUUUUCCCCCGAUAGUGCUAAGGGGGCCUGGAAGUUUGGACUGGGCAGAGCUCAACACAGCGUGGCAAAGCGGCUGUGGCGAGACUGCCUCUCUGGAUUCCUCGUCACUCAGCAGGGCAUCUCUGAGAGGAAUGCC | 0.77
UACGUAGGUGGUUUUCCCCUGAUAGUGCUAAGGGGGCCUGGAAGUUUGGACUGGGCUGAGCUCAACACAGCGUGGCAAGGUGGCUGUGGCUAGACUGCCUCUCUGGGUUCCUCGUCACUCAGCAGGGCAUCUCUGAGAGAGAUGCC | 0
UACGCAGGUGGUUUUCCCCUGAUAGUGCUAAGGGGGCCUGGAAGCUUGGACUGGGCAGAGCUCAACACAGCGUGGCAAAGUGGCUGUGGCUAGUCUGCCUCUCUGGAUUCCUCGUCACUCAGCAGGGCAUCUCUGAGAGAAAUGCC | 0.79
UACGUAGGUGGUUUUCCCCUGAUAGUGCUAAGGGGGCCUGGAGGUUUGGACUGGGGAGAGCCCAACACAGCGUGGCAAAGUGGCUGUGGCUAGACUGCCUCUCUGGAUUCCUCGUCACUCAGCAGGGCAUCUCUGAGAGAAAUGCC | 0.03
UACGUAGGUGGUUUUCCCCUGAUAGUGCUAAGGGGGCCUGGAAGUUAGGACUGGGCAGAGCUCAACACCGCGUGGCAAAGUGGCUGUGGCUAGACUGCCUCUCUGGAUUCCUCGUCACUCAGCAGGGCAUCUCUGGGAGAAAUGCC | 0.06

Variant | self-cleavage
UACGUAGGUGGUCUUCCCCUGAUAGUGCUAAGGGGGCCUGGAAGUUUGGACUGGGCAGAGCUCAACGCAGCGUGGCAAAGUGGCUGUGGCUAGACUGCCUCUCCGGAUUCCUCGUCACUCAGCAGGGCAUCUCUGAGAGAAGUGCC | 0
UACGUAGGUGGGUUUCCCCUGAUAGUGCUAAGGGGGCCUGGAAGUUUGGACUGGGCAGAGCUCAACACAGCGUGGCAAAGUGGCCGUGGCUAGACUGCCUCUCUGGAUUCCUCGUCACCCAGCAGGGCAUCUCUGAGAGAAAUGCC | 0
UACGUAGGUGGUUUUCCCCCGAUAGUGCUAAGGUGGCCUGGAAGUUUGGACUGGGCAGAGCUCAACACAGCGUGGCAAAGAGGCUGUGGCUAGACUGCCUCUCUGGAUUCCUCGUCACUCAGCAGGGCGUCUCUGAGAGAAAUGCC | 2.56
UACGUAGGUGGUUUUCCCCUGACAGAGCUAAGGGGGCCUGGAAGUUUGGACUGGGCAGAGCUCAACACAGCUUGGCAAAGUGGCUGUGGCUAGACUGCCUCUCUGGAUUCCUCGUCACUCAGCAGGGCAACUCUGAGAGAAAUGCC | 1.63
UACGUAGGUGGUUUUCCCCUGAUAGUGCUAAGGGGGCCUGGAAGUUUGGACUGGGCAGAGCUCAACACAGCGUGGCAGGGUGGCUGUGGCUAGACUGCCUCUCUGGAUUCCUCGUCACUCAGCAGGGCAUCUCCGAGAGAAAUGCC | 1.17
UACGUAGGUGAUUUUCCCCUGAUAGUGCUAAGGGGGCCUGGAAGUUUGGACUGGGCAGAGCUCAACACAGCGUGGCAAAGUGGCUGUGGCUAGACUGCCUCUCUGGAUUCCUCGUCACUCAGCAGGGCAUCUCUGAGAGAGCUGCC | 1
UACGUAGGUGGUUUUCCCUUGAUAGUGCUAAGGGGGCCUGGAAGUUUGGACUGGGCGGAGCUCAACACAGCGUAGCAAAGUGGCUGUGGCUAGACUGCCUCUCUGGAUUCCUCGUCACUCAGCAGGGCAUCUCUGAGAGAAAUGCC | 0.81
UACGUAGGUGGUUUUCCCCUGAUAGUGCUAAGGGGGCCAGGAAGUUUGGACUGGGCAGAGCUCAACACAGCGUGGCAAAGUGGCUGCGGCUAGACUGCCUCUCUGGAUUCCUCGUCACUCAGCAGGGCAUCUCUGUGAGAAAUGCC | 0.11
UACGUAGGUGGUUUUCCCCUGAUAGCGCUAAGGGGGCCUGGAAGUUUGGACUGGGCAGAGCUCAACACAGCGUGGCAAAGUGGCUGUGGCUAGUCCGCCUCUCUGGAUUCCUCGUCACUCAGCAGGGCAUCUCUGAGAGAAAUGCC | 0.12
UACGUAGGUGGUUUUCCCCUGAUAGUGCUAAGGGGGCCUGGAAGUUUGGACUGGGCAGAGCUCAGCACAGCGUGGCAAAGUGGCCGUGGCUAAUCUGCCUCUCUGGAUUCCUCGUCACUCAGCAGGGCAUCUCUGAGAGAAAUGCC | 0.05
UACGUAGGUGGUUUUCCCCUGAUAGUGCUAAGGGGGCCUGGAAGUUUGGACUGGGCGGAGCUCAACACAGCGUGGCAAAGAGGCUGUGGCUAGACUGCCUCUCUGGAUUCCUCGUCACUCAGCAGGGCAUCUCUGAGAGAUAUGCC | 0.93
UACGUAGGAGGUUCUCCCCUGAUAGUGCUAAGGGGGCCUGGAAGUUUGGACUGGGCAGAGCUCAACACAGCGUGGCAAAGUGGCUGUGGCUAGACUGCCUCCCUGGAUUCCUCGUCACUCAGCAGGGCAUCUCUGAGAGGAAUGCC | 0.99
UACGUAGGUGGUUUUCCCCUGAUAGUGCUAAGGGGGCCUGGAAGUUUGGACUGGGCAGAGCUCAACACAGCGUGGCAAAGAGGCUGCGGCUAGACUGCCUCUCUGGAUUCCUCGUCACACAGCAGGGCAUCUCUGAGAGAAGUGCC | 0.26
UACGUAGGUGGUUUUCCCUUGAUAGUGCUAAGGGGGCCUUGAAGUUUGGACUGGGCAGAGCUCAACACAGCGUGGCAAAGUGGCUGUGGCUAGACUGCCACUCUGGAUUCCUCGUCACUCAGCAGGGCAUCUCUGAGAGAAAUGCC | 0.53
UACGUAGGUGGUUUUCACCUGAUAGUGCUAAGGGGGCCUGGAAGUUUGGACUGGGCAGAGCUCAACACAGCGUGGCAAAGUGGCCGUGGCUAGACUGCCUCUCUGGAUUCCUCGUCACUCAGCAGGGCAUCUCUGAAAGAAAUGCC | 0.2
UACGUAGGUGGUUUUCCCCUGAUAGUGCUGAGGAGGCCUGGAAGUCUGGACUGGGCAGAGCUCAACACAGCGUGGCAAAGUGGCUGUGGCUAGACUGCCUCUCUGGAUUCCUCGUCACUCAGCAGGGCAUCUCUGAGAGAAAUGCC | 1.21
UACGUAGGCGGUUUUCCCCUGAUAGAGCUAAGGGGGCCCGGUAGUUUGGACUGGGCAGAGCUCAACACAGCGUGGCAAAGAGGCUGUGGCUAGACUGCCUCUCUGGAUUCCUCGUCACUCAGCAGGGCAUCUCUGAGAGAAAUGCC | 0.54
UACGUAGGUGGUUUCCCCCUGAUAGUGCUAAGGGGGCCUGGAAGCUUGGACUGGGCAGGGCUCAACACAGCGUGGCAGAGUGGCUGUGGCUAGACUGCCUCUCUGGAUUCCUCGUCACUCAGCAGGGCAUCCCUGAGAGAAAUGCC | 0
UACGUAGGUGGUUUUCCCCUGAUAGUGCUAAGGGGGCCUGGAAGUUUGGACUGGGCAGAGCUCGACACAGCGUGGCGAAGUGGCUGUGGCUAGACUGCCUCUCUGGAUUCCUCGUCACUCUGCAGGGCAUCUCUGAGAGAGAUGCC | 0.39
